PubChem BioAssay AID624296 (National Center for Advancing Translational Sciences (NCATS), 2012)
About 9,900 (2.8%) of roughly 350,000 compounds were called active. The shares of active, inactive and inconclusive entries below differ from those in the screen. Calls follow the shape of the dose curve; as a rule, active = well fitted activation curve with a large enough effect; inconclusive = small, poorly fitted or top-dose-only effect; inactive = no such curve, though single readings can be large or run the other way. Potencies of inconclusive entries are left out as doubtful fits.

test: A quantitative high throughput screen for small molecules that induce DNA re-replication in MCF 10a normal breast cells.; also: nearly all actives have a fitted effect of over 50% in size; details: MCF 10A DNA re-replication, Hoechst nuclear intensity, 48 h; series mostly up to 46.1 µM
Potency is read from the fitted curve at half-maximal effect; tags tell the direction and shape of the fitted curve.

SMILES	Potency
N[C@H](CSCc1ccccc1)C(=O)Nc1ccc([N+](=O)[O-])cc1	inconclusive [activator, full curve, poor fit]
Cc1noc(C)c1CN(C(=S)NC1CC2CCC1C2)c1ccccc1 (centres undefined)	inactive
CC1(C(=O)N/N=C/c2ccc([N+](=O)[O-])o2)CC1(Br)Br (centres undefined)	inconclusive [activator, single point]
CCCC(=O)Nc1ccc(C(=O)Nc2nc(CC(=O)OCC)cs2)cc1	inconclusive [activator, partial curve, poor fit]
CS(=O)(=O)C1=NSC2=NC(=O)/C(=C\c3cccn3-c3ccc(Cl)cc3)C(=N)N21	inconclusive [activator, single point]
O=C(NCc1ccccn1)Nc1ccc(Br)cc1Cl	inactive
COCCNC(=O)CN(C(=O)Cn1nnc2ccccc21)c1ccccc1	inactive
CCOc1cc(/C=C2\C(=O)ON=C2c2ccccc2)ccc1OC	inconclusive [activator, single point]
CC(C)CN(CC(C)C)S(=O)(=O)N1CCC(C(=O)N2CCc3ccccc3C2)CC1	inconclusive [activator, single point]
Cc1ccc(-c2cc3ccccc3nc2N2CCOCC2)cc1	inconclusive [activator, single point]
Cc1ccccc1CCN1CCCC(CN(C)C(=O)C(=O)c2ccco2)C1 (centres undefined)	inconclusive [activator, partial curve, poor fit]
COc1ccc(NC(=S)NC(=O)C2CCCCC2)cc1	inactive
COc1ccc(OC(=O)c2cccc(S(=O)(=O)N3CC(C)OC(C)C3)c2)cc1 (centres undefined)	inactive
Cc1cccc(OCCCC(=O)Nc2nc3ccccc3[nH]2)c1	inactive
COC(=O)Cc1c(C)c2cc(Cl)c(OC(=O)c3ccco3)cc2oc1=O	inconclusive [activator, partial curve, poor fit]
O=C(CCCn1c(SCc2ccccc2F)nc2ccccc2c1=O)NCC1CCCO1 (centres undefined)	inconclusive [activator, single point]
CCOC(=O)C1C(=O)C(=O)N(C2CCCCC2)C1C(=O)OCC (centres undefined)	inactive
Cc1cc(C)c2sc(N(CCCN(C)C)C(=O)c3ccc(Br)s3)nc2c1	inconclusive [activator, partial curve, poor fit]
COc1ccc(C(=O)N=C2SC3CS(=O)(=O)CC3N2c2ccc(N(C)C)cc2)cc1OC (centres undefined)	inconclusive [activator, single point]
CC1CCCN(C(=O)CSc2nnc(-c3c[nH]c4ccccc34)o2)C1 (centres undefined)	inconclusive [activator, partial curve, poor fit]
CC1CCN(S(=O)(=O)c2cn(CC(=O)N3CC(C)CC(C)C3)c(=O)c3ccccc23)CC1 (centres undefined)	inactive
CCOC(=O)C1(Cc2ccc(Cl)cc2)CCN(C(=O)c2cnc(C)cn2)CC1	inactive
Clc1cc2cccnc2c2ccccc12	inactive

SMILES	Potency
N#C/C(=C\c1cn(CCOc2ccccc2)c2ccccc12)C(=O)NCc1cccs1	inconclusive [activator, single point]
Cc1nc(NC(=O)c2ccccc2)sc1Cc1ccc2c(c1)OCO2	inconclusive [activator, full curve]
CCC(=O)N1CCc2cc(Br)cc(S(=O)(=O)N3CCC(C(=O)NCCCOC(C)C)CC3)c21	inconclusive [activator, single point]
COc1ccc(-c2nn(-c3ccccc3)cc2C(=O)NC2CCCCC2C)cc1 (centres undefined)	inconclusive [activator, single point]
COc1ccc(C(=O)Nc2ccc(S(=O)(=O)NC(C)(C)C)cc2)cc1[N+](=O)[O-]	active: 0.13 µM
CN(C)CCOC1c2ccccc2C=Cc2ccccc21	inactive
Cc1cc(=O)[nH]c(SCCOc2ccc3c(c2)CCC3)n1	inconclusive [activator, full curve, poor fit]
CC(C)C[C@H](CO)Nc1nc(Nc2cccc(Cl)c2)c2ncn(C(C)C)c2n1	inconclusive [activator, partial curve]
COc1cc2c(C(=O)Nc3ccccc3F)cn(C)c(=O)c2cc1OC	inactive
COc1cc([N+](=O)[O-])cc(/C=N/NC(=O)c2cccnc2)c1O	active: 6.51 µM
Cc1ccccc1-c1nc(CN2CCC(C(=O)NCCC3=CCCCC3)CC2)c(C)o1	inconclusive [activator, partial curve]
O=S(=O)(NCC1CCCO1)c1ccccc1F (centres undefined)	inactive
Cn1c(=O)c2c(nc(NCCO)n2CCc2ccccc2)n(C)c1=O	inactive
Cc1c(C(=O)N2CCOCC2)cc(C(C)(C)C)n1-c1ccccc1	inconclusive [activator, single point]
CC[C@@H]1CN(C)[C@H]2Cc3c([nH]c4ccccc34)C(=O)C[C@@H]1[C@@H]2C(=O)OC	inactive
COc1cc(OC)c(C(=O)NC2CCCc3ccccc32)cc1OC (centres undefined)	inconclusive [activator, partial curve, poor fit]
Cc1ccc(C(=O)/C=C/C(=O)c2ccc(C)cc2)cc1	active: 3.66 µM
COc1ccc(-c2ccc(-c3noc(-c4ccco4)n3)c(OC)n2)cc1	inconclusive [activator, partial curve, poor fit]
CN1C(C(=O)NCc2ccc(OC(F)(F)F)cc2)CC2Cn3c(nc4cc5ccccc5cc43)C21 (centres undefined)	inconclusive [activator, partial curve, poor fit]
CCN1C(=O)[C@H]2[C@@H](c3ccc(-c4ccccc4)cc3)N3CCC[C@@]3(C(=O)OC)[C@H]2C1=O	inconclusive [activator, single point]
Cc1ccc2nc(N/C(N)=N/S(=O)(=O)c3ccc([N+](=O)[O-])cc3)nc(C)c2c1	inactive
Cc1cccc(C)c1N1CCN(c2ccc3nnc(C(F)(F)F)n3n2)CC1	inconclusive [activator, single point]
O=C(CN(Cc1ccccc1Cl)C(=O)c1csnn1)NCc1ccc2c(c1)OCO2	inconclusive [activator, partial curve, poor fit]

SMILES	Potency
CC1(C)CC[C@]2(C(=O)O[C@@H]3OC(CO)[C@@H](O)[C@H](O)[C@H]3O)CC[C@]3(C)C(=CCC4[C@@]5(C)CC[C@H](O[C@@H]6OC(C(=O)O)[C@@H](O)[C@H](O)[C@H]6O)C(C)(C)C5CC[C@]43C)[C@@H]2C1 (some centres undefined)	active: 18.4 µM
CCCN(CCC)S(=O)(=O)c1ccc(C(=O)Nc2nnc(-c3cccc(OC)c3)o2)cc1	inconclusive [activator, partial curve, poor fit]
CCOC(=O)c1cc2ccc(OC(=O)c3ccco3)cc2oc1=O	active: 3.26 µM
CC1CC(C(F)F)n2nc(C(=O)Nc3sc4c(c3C#N)CCC(C(C)(C)C)C4)nc2N1 (centres undefined)	inconclusive [activator, full curve, poor fit]
O=C(Nc1nnc(SCc2ccc(F)cc2)s1)c1ccccn1	inconclusive [activator, full curve]
CCCc1ccc(NC(=O)C2CCN(c3cnccn3)CC2)cc1	inconclusive [activator, single point]
CCCOc1ccc(C(=O)C(CN2CCCC2)c2ccccc2)cc1 (centres undefined)	active: 8.2 µM
O=C(NC(=S)Nc1ccccc1)c1cc(-c2ccccc2)nc2ccccc12	inactive
COCCCNC(=S)N/N=C/c1ccc(O)cc1O	inactive
Cc1cc(O)c(S(=O)(=O)c2ccccc2)c(C)c1NS(=O)(=O)c1ccccc1	inactive
COc1cc(-c2nn3c(-c4ccccc4)nnc3s2)cc(OC)c1OC	inconclusive [activator, partial curve, poor fit]
CCCCn1c(SCC(=O)OC)nc2c1c(=O)n(C)c(=O)n2C	inactive
CC(/C=C/C=C/c1ccccc1)=N/NC(=O)CNc1ccccc1C	inconclusive [activator, single point]
COc1ccc(-c2csc(N(Cc3ccco3)C(=O)c3cccs3)n2)cc1	inactive
O=C1C(C=NCc2ccccn2)=C(O)c2ccccc21	inactive
CCOC(=O)N1CCC(N(C(=O)Nc2ccc(CC)cc2)C(C)CC)CC1 (centres undefined)	inconclusive [activator, single point]
O=C1c2[nH]nc(-c3ccccc3O)c2C(c2ccc(F)cc2)N1Cc1ccco1 (centres undefined)	inconclusive [activator, single point]
Cc1csc(-c2coc3cc(O)cc(C)c3c2=O)n1	inconclusive [activator, single point]
O=C(NN=Cc1ccccc1O)NN=Cc1ccccc1O	inconclusive [activator, single point]
O=C(O)c1cccc(Nc2nc(-c3cccnc3)nc3ccccc23)c1	inconclusive [activator, single point]
COc1ccc(/C=C/C(=O)NC(=S)Nc2ccc(S(=O)(=O)Nc3cc(OC)ncn3)cc2)cc1	inconclusive [activator, single point]
O=C(Nc1nc(-c2ccco2)c(-c2ccco2)s1)c1c(F)cccc1Cl	inactive
CC(/C=N/NC(=O)c1cc(-c2cccn2C)n[nH]1)=C\c1ccccc1	inconclusive [activator, single point]
